# Measured values reported in the supplement of paper PMC8728848.
# This is one part of the list.
# Tests used:
# Assay in all cases: glycan array binding signal (z-score within array); higher = stronger binding
# Settings in all cases: glycan notation: IUPAC condensed, linker removed
# [1] = target: Neu5Ac(a2-3)Gal(b1-3)GalNAc
# Method in brief: (§1)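 The binding signal is a Z-score computed within each array. Data were drawn from 3228 arrays in the Consortium for Functional Glycomics database, restricted to those with a known protein sequence. Scores were averaged over arrays of the same protein sequence at different concentrations or buffers, and over linkers, and negative values can be taken as non-binding.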
# [2] = target: Neu5Ac(a2-3)Gal(b1-3)GalNAc(b1-3)Gal(a1-4)Gal(b1-4)Glc
# Method in brief: as §1
# [3] = target: Neu5Ac(a2-3)Gal(b1-3)GalNAc(b1-4)Gal(b1-4)Glc
# Method in brief: as §1
# [4] = target: Neu5Ac(a2-3)Gal(b1-3)GalNAc(b1-4)[Neu5Ac(a2-3)]Gal(b1-4)Glc
# Method in brief: as §1
# [5] = target: Neu5Ac(a2-3)Gal(b1-3)GalNAc(b1-4)[Neu5Ac(a2-8)Neu5Ac(a2-3)]Gal(b1-4)Glc
# Method in brief: as §1
# [6] = target: Neu5Ac(a2-3)Gal(b1-3)GalNAc6S
# Method in brief: as §1
# [7] = target: Neu5Ac(a2-3)Gal(b1-3)GlcNAc
# Method in brief: as §1
# [8] = target: Neu5Ac(a2-3)Gal(b1-3)GlcNAc(b1-2)Man
# Method in brief: as §1
# [9] = target: Neu5Ac(a2-3)Gal(b1-3)GlcNAc(b1-2)Man(a1-3)[GlcNAc(b1-4)][Neu5Ac(a2-3)Gal(b1-3)GlcNAc(b1-2)Man(a1-6)]Man(b1-4)GlcNAc(b1-4)GlcNAc
# Method in brief: as §1
# [10] = target: Neu5Ac(a2-3)Gal(b1-3)GlcNAc(b1-2)Man(a1-3)[Neu5Ac(a2-3)Gal(b1-3)GlcNAc(b1-2)Man(a1-6)]Man(b1-4)GlcNAc(b1-4)GlcNAc
# Method in brief: as §1
# [11] = target: Neu5Ac(a2-3)Gal(b1-3)GlcNAc(b1-2)[Neu5Ac(a2-3)Gal(b1-3)GlcNAc(b1-4)]Man(a1-6)[Neu5Ac(a2-3)Gal(b1-3)GlcNAc(b1-2)Man(a1-3)]Man(b1-4)GlcNAc(b1-4)GlcNAc
# Method in brief: as §1
# [12] = target: Neu5Ac(a2-3)Gal(b1-3)GlcNAc(b1-3)Gal(b1-3)GlcNAc
# Method in brief: as §1
# [13] = target: Neu5Ac(a2-3)Gal(b1-3)GlcNAc(b1-3)Gal(b1-4)GlcNAc
# Method in brief: as §1
# [14] = target: Neu5Ac(a2-3)Gal(b1-3)GlcNAc(b1-3)GalNAc
# Method in brief: as §1
# [15] = target: Neu5Ac(a2-3)Gal(b1-3)GlcNAc(b1-6)GalNAc
# Method in brief: as §1
# [16] = target: Neu5Ac(a2-3)Gal(b1-3)GlcNAc6S
# Method in brief: as §1
# [17] = target: Neu5Ac(a2-3)Gal(b1-3)[Fuc(a1-4)]GlcNAc
# Method in brief: as §1
# [18] = target: Neu5Ac(a2-3)Gal(b1-3)[Fuc(a1-4)]GlcNAc(b1-3)Gal(b1-3)[Fuc(a1-4)]GlcNAc
# Method in brief: as §1
# [19] = target: Neu5Ac(a2-3)Gal(b1-3)[Fuc(a1-4)]GlcNAc(b1-3)Gal(b1-4)[Fuc(a1-3)]GlcNAc
# Method in brief: as §1
# [20] = target: Neu5Ac(a2-3)Gal(b1-3)[GlcNAc(b1-6)]GalNAc
# Method in brief: as §1
# [21] = target: Neu5Ac(a2-3)Gal(b1-3)[Neu5Ac(a2-6)]GalNAc
# Method in brief: as §1
# [22] = target: Neu5Ac(a2-3)Gal(b1-3)[Neu5Ac(a2-6)]GlcNAc(b1-3)[Fuc(a1-3)[Gal(b1-4)]GlcNAc(b1-6)]Gal(b1-4)Glc
# Method in brief: as §1
# [23] = target: Neu5Ac(a2-3)Gal(b1-3)]Neu5Ac(a2-3)Gal(b1-4)]GlcNAc
# Method in brief: as §1
# [24] = target: Neu5Ac(a2-3)Gal(b1-4)Glc
# Method in brief: as §1
# [25] = target: Neu5Ac(a2-3)Gal(b1-4)GlcNAc
# Method in brief: as §1
# [26] = target: Neu5Ac(a2-3)Gal(b1-4)GlcNAc(b1-2)Man
# Method in brief: as §1
# [27] = target: Neu5Ac(a2-3)Gal(b1-4)GlcNAc(b1-2)Man(a1-3)[GlcNAc(b1-4)][Neu5Ac(a2-3)Gal(b1-4)GlcNAc(b1-2)Man(a1-6)]Man(b1-4)GlcNAc(b1-4)GlcNAc
# Method in brief: as §1
# [28] = target: Neu5Ac(a2-3)Gal(b1-4)GlcNAc(b1-2)Man(a1-3)[Neu5Ac(a2-3)Gal(b1-4)GlcNAc(b1-2)Man(a1-6)]Man(b1-4)GlcNAc(b1-4)GlcNAc
# Method in brief: as §1
# [29] = target: Neu5Ac(a2-3)Gal(b1-4)GlcNAc(b1-2)Man(a1-3)[Neu5Ac(a2-3)Gal(b1-4)GlcNAc(b1-2)Man(a1-6)]Man(b1-4)GlcNAc(b1-4)[Fuc(a1-6)]GlcNAc
# Method in brief: as §1
# [30] = target: Neu5Ac(a2-3)Gal(b1-4)GlcNAc(b1-2)Man(a1-3)[Neu5Ac(a2-6)Gal(b1-4)GlcNAc(b1-2)Man(a1-6)]Man(b1-4)GlcNAc(b1-4)GlcNAc
# Method in brief: as §1
# [31] = target: Neu5Ac(a2-3)Gal(b1-4)GlcNAc(b1-2)[Neu5Ac(a2-3)Gal(b1-4)GlcNAc(b1-4)]Man(a1-3)[GlcNAc(b1-4)][Neu5Ac(a2-3)Gal(b1-4)GlcNAc(b1-2)[Neu5Ac(a2-3)Gal(b1-4)GlcNAc(b1-6)]Man(a1-6)]Man(b1-4)GlcNAc(b1-4)GlcNAc
# Method in brief: as §1
# [32] = target: Neu5Ac(a2-3)Gal(b1-4)GlcNAc(b1-2)[Neu5Ac(a2-3)Gal(b1-4)GlcNAc(b1-4)]Man(a1-3)[GlcNAc(b1-4)][Neu5Ac(a2-3)Gal(b1-4)GlcNAc(b1-4)Man(a1-6)]Man(b1-4)GlcNAc(b1-4)GlcNAc
# Method in brief: as §1
# [33] = target: Neu5Ac(a2-3)Gal(b1-4)GlcNAc(b1-2)[Neu5Ac(a2-3)Gal(b1-4)GlcNAc(b1-6)]Man(a1-6)[Neu5Ac(a2-3)Gal(b1-4)GlcNAc(b1-2)Man(a1-3)][GlcNAc(b1-4)]Man(b1-4)GlcNAc(b1-4)GlcNAc
# Method in brief: as §1
# [34] = target: Neu5Ac(a2-3)Gal(b1-4)GlcNAc(b1-3)Gal
# Method in brief: as §1
# [35] = target: Neu5Ac(a2-3)Gal(b1-4)GlcNAc(b1-3)Gal(b1-3)GlcNAc
# Method in brief: as §1
# [36] = target: Neu5Ac(a2-3)Gal(b1-4)GlcNAc(b1-3)Gal(b1-4)GlcNAc
# Method in brief: as §1
# [37] = target: Neu5Ac(a2-3)Gal(b1-4)GlcNAc(b1-3)Gal(b1-4)GlcNAc(b1-2)Man(a1-3)[Neu5Ac(a2-3)Gal(b1-4)GlcNAc(b1-3)Gal(b1-4)GlcNAc(b1-2)Man(a1-6)]Man(b1-4)GlcNAc(b1-4)GlcNAc
# Method in brief: as §1
# [38] = target: Neu5Ac(a2-3)Gal(b1-4)GlcNAc(b1-3)Gal(b1-4)GlcNAc(b1-3)Gal(b1-4)GlcNAc
# Method in brief: as §1
# [39] = target: Neu5Ac(a2-3)Gal(b1-4)GlcNAc(b1-3)Gal(b1-4)GlcNAc(b1-3)Gal(b1-4)GlcNAc(b1-2)Man(a1-3)[Neu5Ac(a2-3)Gal(b1-4)GlcNAc(b1-3)Gal(b1-4)GlcNAc(b1-3)Gal(b1-4)GlcNAc(b1-2)Man(a1-6)]GalNAc
# Method in brief: as §1
# [40] = target: Neu5Ac(a2-3)Gal(b1-4)GlcNAc(b1-3)Gal(b1-4)GlcNAc(b1-3)GalNAc
# Method in brief: as §1
# [41] = target: Neu5Ac(a2-3)Gal(b1-4)GlcNAc(b1-3)Gal(b1-4)GlcNAc(b1-3)[Neu5Ac(a2-3)Gal(b1-4)GlcNAc(b1-3)Gal(b1-4)GlcNAc(b1-6)]GalNAc
# Method in brief: as §1
# [42] = target: Neu5Ac(a2-3)Gal(b1-4)GlcNAc(b1-3)Gal(b1-4)GlcNAc(b1-6)[Gal(b1-3)]GalNAc
# Method in brief: as §1
# [43] = target: Neu5Ac(a2-3)Gal(b1-4)GlcNAc(b1-3)Gal(b1-4)[Fuc(a1-3)]GlcNAc
# Method in brief: as §1
# [44] = target: Neu5Ac(a2-3)Gal(b1-4)GlcNAc(b1-3)GalNAc
# Method in brief: as §1
# [45] = target: Neu5Ac(a2-3)Gal(b1-4)GlcNAc(b1-3)[Neu5Ac(a2-3)Gal(b1-4)GlcNAc(b1-6)]GalNAc
# Method in brief: as §1
binder,measurement,setting,value
Mermaid3 (Stilbonema majum) (protein) MGSSHHHHHHSSGLVPRGSHMAASGWLRSPQGTVVKLYRRSLSWSKADEFCKDVDGRLVVDRTADMHLFLIKNVLKEKKSRVWVGLRRTASHSRTWIWSDGTRQNEGDLDANLWLRDEPNDAAGEEECALFMYSPWEKAWGLNDYLCRGGCRNYQFICEKWIR,glycan array binding signal (z-score),[1],-0.595
same,glycan array binding signal (z-score),[2],-0.559
same,glycan array binding signal (z-score),[3],-0.334
same,glycan array binding signal (z-score),[4],0.514
same,glycan array binding signal (z-score),[5],-0.82
same,glycan array binding signal (z-score),[6],-0.112
same,glycan array binding signal (z-score),[7],-0.277
same,glycan array binding signal (z-score),[8],-0.419
same,glycan array binding signal (z-score),[9],-0.546
same,glycan array binding signal (z-score),[10],0.621
same,glycan array binding signal (z-score),[11],-0.572
same,glycan array binding signal (z-score),[12],-0.538
same,glycan array binding signal (z-score),[13],-0.582
same,glycan array binding signal (z-score),[14],-0.361
same,glycan array binding signal (z-score),[15],0.004
same,glycan array binding signal (z-score),[16],2.46
same,glycan array binding signal (z-score),[17],0.308
same,glycan array binding signal (z-score),[18],0.762
same,glycan array binding signal (z-score),[19],1.63
same,glycan array binding signal (z-score),[20],-0.478
same,glycan array binding signal (z-score),[21],-0.432
same,glycan array binding signal (z-score),[22],-0.212
same,glycan array binding signal (z-score),[23],-0.471
same,glycan array binding signal (z-score),[24],0.506
same,glycan array binding signal (z-score),[25],0.245
same,glycan array binding signal (z-score),[26],4.26
same,glycan array binding signal (z-score),[27],-0.482
same,glycan array binding signal (z-score),[28],-0.562
same,glycan array binding signal (z-score),[29],-0.558
same,glycan array binding signal (z-score),[30],-0.284
same,glycan array binding signal (z-score),[31],-0.492
same,glycan array binding signal (z-score),[32],-0.416
same,glycan array binding signal (z-score),[33],-0.059
same,glycan array binding signal (z-score),[34],-0.802
same,glycan array binding signal (z-score),[35],-0.362
same,glycan array binding signal (z-score),[36],0.306
same,glycan array binding signal (z-score),[37],0.226
same,glycan array binding signal (z-score),[38],-0.653
same,glycan array binding signal (z-score),[39],1.96
same,glycan array binding signal (z-score),[40],-0.589
same,glycan array binding signal (z-score),[41],-0.289
same,glycan array binding signal (z-score),[42],0.035
same,glycan array binding signal (z-score),[43],-0.664
same,glycan array binding signal (z-score),[44],-0.602
same,glycan array binding signal (z-score),[45],-0.522
